Test results taken from the supplement of paper PMC8728848.
The list shows a part of the results.

Experiments:
Test in all cases: glycan array binding signal (z-score within array); higher = stronger binding
Conditions in all cases: glycan notation: IUPAC condensed, linker removed
[1] = target: Neu5Ac(a2-6)Gal(b1-4)GlcNAc(b1-2)[Neu5Ac(a2-3)Gal(b1-4)GlcNAc(b1-4)]Man(a1-3)[Neu5Ac(a2-3)Gal(b1-4)GlcNAc(b1-2)Man(a1-6)]Man(b1-4)GlcNAc(b1-4)GlcNAc
Procedure, shortened: (§1)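 Glycan array data were curated from 3228 arrays in the Consortium for Functional Glycomics database and kept only where the protein sequence was available. Glycan names were converted to IUPAC-condensed notation, and columns mapping to the same glycan were averaged. The binding signal is a within-array Z-score, averaged across arrays of the same protein sequence at different concentrations or buffers and across linkers. Negative Z-scores can be read as non-binding.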

[2] = target: Neu5Ac(a2-6)Gal(b1-4)GlcNAc(b1-3)Gal(b1-4)Glc
Procedure, shortened: as §1

[3] = target: Neu5Ac(a2-6)Gal(b1-4)GlcNAc(b1-3)Gal(b1-4)[Fuc(a1-3)]Glc
Procedure, shortened: as §1

[4] = target: Neu5Ac(a2-6)Gal(b1-4)GlcNAc(b1-3)[Neu5Ac(a2-6)Gal(b1-4)GlcNAc(b1-6)]Gal(b1-4)Glc
Procedure, shortened: as §1

[5] = target: Neu5Ac(a2-6)Gal(b1-4)GlcNAc(b1-6)[Gal(b1-3)GlcNAc(b1-3)]Gal(b1-4)Glc
Procedure, shortened: as §1

[6] = target: Neu5Ac(a2-6)Gal(b1-4)[Fuc(a1-3)]GlcNAc(b1-3)Gal(b1-4)Glc
Procedure, shortened: as §1

[7] = target: Neu5Ac(a2-8)Neu5Ac
Procedure, shortened: as §1

[8] = target: Neu5Ac(a2-8)Neu5Ac(a2-3)Gal(b1-3)GalNAc(b1-4)[Neu5Ac(a2-3)]Gal(b1-4)Glc
Procedure, shortened: as §1

[9] = target: Neu5Ac(a2-8)Neu5Ac(a2-3)Gal(b1-3)GalNAc(b1-4)[Neu5Ac(a2-8)Neu5Ac(a2-3)]Gal(b1-4)Glc
Procedure, shortened: as §1

[10] = target: Neu5Ac(a2-8)Neu5Ac(a2-3)Gal(b1-4)Glc
Procedure, shortened: as §1

[11] = target: Neu5Ac(a2-8)Neu5Ac(a2-3)[Gal(b1-3)GalNAc(b1-4)]Gal(b1-4)Glc
Procedure, shortened: as §1

[12] = target: Neu5Ac(a2-8)Neu5Ac(a2-3)[GalNAc(b1-4)]Gal(b1-4)Glc
Procedure, shortened: as §1

[13] = target: Neu5Ac(a2-8)Neu5Ac(a2-8)Neu5Ac
Procedure, shortened: as §1

[14] = target: Neu5Ac(a2-8)Neu5Ac(a2-8)Neu5Ac(a2-8)Neu5Ac
Procedure, shortened: as §1

[15] = target: Neu5Ac(a2-8)Neu5Ac(a2-8)Neu5Ac(a2-8)Neu5Ac(a2-8)Neu5Ac
Procedure, shortened: as §1

[16] = target: Neu5Ac(a2-8)Neu5Ac(a2-8)Neu5Ac(a2-8)Neu5Ac(a2-8)Neu5Ac(a2-8)Neu5Ac
Procedure, shortened: as §1

[17] = target: Neu5Ac(a2-8)Neu5Ac(a2-8)Neu5Ac(a2-8)Neu5Ac(a2-8)Neu5Ac(a2-8)Neu5Ac(a2-8)Neu5Ac
Procedure, shortened: as §1

[18] = target: Neu5Ac(a2-8)Neu5Ac(a2-8)Neu5Ac(a2-8)Neu5Ac(a2-8)Neu5Ac(a2-8)Neu5Ac(a2-8)Neu5Ac(a2-8)Neu5Ac
Procedure, shortened: as §1

[19] = target: Neu5Ac(a2-8)Neu5Ac(a2-8)Neu5Ac(a2-8)Neu5Ac(a2-8)Neu5Ac(a2-8)Neu5Ac(a2-8)Neu5Ac(a2-8)Neu5Ac(a2-8)Neu5Ac
Procedure, shortened: as §1

[20] = target: Neu5Ac(a2-8)Neu5Ac(a2-8)Neu5Ac(a2-8)Neu5Ac(a2-8)Neu5Ac(a2-8)Neu5Ac(a2-8)Neu5Ac(a2-8)Neu5Ac(a2-8)Neu5Ac(a2-8)Neu5Ac
Procedure, shortened: as §1

[21] = target: Neu5Ac(a2-8)Neu5Ac(a2-8)Neu5Ac(a2-8)Neu5Ac(a2-8)Neu5Ac(a2-8)Neu5Ac(a2-8)Neu5Ac(a2-8)Neu5Ac(a2-8)Neu5Ac(a2-8)Neu5Ac(a2-8)Neu5Ac
Procedure, shortened: as §1

[22] = target: Neu5Ac(b2-3)Gal(b1-4)Glc
Procedure, shortened: as §1

[23] = target: Neu5Ac(b2-6)Gal(b1-4)Glc
Procedure, shortened: as §1

[24] = target: Neu5Ac9Ac(a2-6)Gal(b1-4)GlcNAc
Procedure, shortened: as §1

[25] = target: Neu5Gc(a2-3)Gal(b1-4)Glc
Procedure, shortened: as §1

[26] = target: Neu5Gc(a2-3)[GalNAc(b1-4)]Gal
Procedure, shortened: as §1

[27] = target: Neu5Gc(a2-6)Gal(b1-4)GlcNAc(b1-2)Man(a1-3)[Neu5Gc(a2-6)Gal(b1-4)GlcNAc(b1-2)Man(a1-6)]Man(b1-4)GlcNAc(b1-4)GlcNAc
Procedure, shortened: as §1

[28] = target: Xyl(a1-6)Glc(b1-4)[Xyl(a1-6)]Glc(b1-4)[Xyl(a1-6)]Glc(b1-4)Glc
Procedure, shortened: as §1

[29] = target: Xyl(b1-2)[Man(a1-3)][Man(a1-6)]Man(b1-4)GlcNAc(b1-4)GlcNAc
Procedure, shortened: as §1

[30] = target: Xyl(b1-2)[Man(a1-3)][Man(a1-6)]Man(b1-4)GlcNAc(b1-4)[Fuc(a1-3)]GlcNAc
Procedure, shortened: as §1

[31] = target: Xyl(b1-4)Xyl(b1-4)Xyl(b1-4)Xyl(b1-4)Xyl
Procedure, shortened: as §1

B1: CLECSF8 (Mus musculus), Q9Z2H6 (protein)
chain: HYFLRWTRGSVVKLSDYHTRVTCIREEPQPGATGGTWTCCPVSWRAFQSNCYFPLNDNQTWHESERNCSGMSSHLVTINTEAEQNFVTQLLDKRFSYFLGLADENVEGQWQWVDKTPFNPHTVFWEKGESNDFMEEDCVVLVHVHEKWVWNDFPCHFEVRRICKLPGITFNWKPSK
glycan array binding signal (z-score) [1]: -0.424 | glycan array binding signal (z-score) [2]: -0.424 | glycan array binding signal (z-score) [3]: -0.424 | glycan array binding signal (z-score) [4]: -0.424 | glycan array binding signal (z-score) [5]: -0.424 | glycan array binding signal (z-score) [6]: -0.424 | glycan array binding signal (z-score) [7]: 1.43 | glycan array binding signal (z-score) [8]: 9.51 | glycan array binding signal (z-score) [9]: -0.424 | glycan array binding signal (z-score) [10]: -0.424 | glycan array binding signal (z-score) [11]: -0.424 | glycan array binding signal (z-score) [12]: -0.424 | glycan array binding signal (z-score) [13]: 2.57 | glycan array binding signal (z-score) [14]: 2.57 | glycan array binding signal (z-score) [15]: 1.77 | glycan array binding signal (z-score) [16]: 0.688 | glycan array binding signal (z-score) [17]: 2.38 | glycan array binding signal (z-score) [18]: 2.26 | glycan array binding signal (z-score) [19]: 2.35 | glycan array binding signal (z-score) [20]: 0.778 | glycan array binding signal (z-score) [21]: 2.73 | glycan array binding signal (z-score) [22]: -0.424 | glycan array binding signal (z-score) [23]: -0.424 | glycan array binding signal (z-score) [24]: -0.424 | glycan array binding signal (z-score) [25]: -0.424 | glycan array binding signal (z-score) [26]: -0.424 | glycan array binding signal (z-score) [27]: -0.424 | glycan array binding signal (z-score) [28]: 3.32 | glycan array binding signal (z-score) [29]: -0.424 | glycan array binding signal (z-score) [30]: -0.424 | glycan array binding signal (z-score) [31]: 1.27
